The results in this text go back to article PMC6760808.

Holding throughout (assay): knocksideways (recruitment to the mitochondrial surface, fluorescence microscopy); NPHP-mCh-mito bait on the mitochondrial surface co-expressed with EGFP-tagged nucleoporin in COS-7 cells; fixed 24 hours post-transfection
Experiment [1] deals with T1, NPHP2-mCh-mito (UniProt Q9Y283).
T1 sequence: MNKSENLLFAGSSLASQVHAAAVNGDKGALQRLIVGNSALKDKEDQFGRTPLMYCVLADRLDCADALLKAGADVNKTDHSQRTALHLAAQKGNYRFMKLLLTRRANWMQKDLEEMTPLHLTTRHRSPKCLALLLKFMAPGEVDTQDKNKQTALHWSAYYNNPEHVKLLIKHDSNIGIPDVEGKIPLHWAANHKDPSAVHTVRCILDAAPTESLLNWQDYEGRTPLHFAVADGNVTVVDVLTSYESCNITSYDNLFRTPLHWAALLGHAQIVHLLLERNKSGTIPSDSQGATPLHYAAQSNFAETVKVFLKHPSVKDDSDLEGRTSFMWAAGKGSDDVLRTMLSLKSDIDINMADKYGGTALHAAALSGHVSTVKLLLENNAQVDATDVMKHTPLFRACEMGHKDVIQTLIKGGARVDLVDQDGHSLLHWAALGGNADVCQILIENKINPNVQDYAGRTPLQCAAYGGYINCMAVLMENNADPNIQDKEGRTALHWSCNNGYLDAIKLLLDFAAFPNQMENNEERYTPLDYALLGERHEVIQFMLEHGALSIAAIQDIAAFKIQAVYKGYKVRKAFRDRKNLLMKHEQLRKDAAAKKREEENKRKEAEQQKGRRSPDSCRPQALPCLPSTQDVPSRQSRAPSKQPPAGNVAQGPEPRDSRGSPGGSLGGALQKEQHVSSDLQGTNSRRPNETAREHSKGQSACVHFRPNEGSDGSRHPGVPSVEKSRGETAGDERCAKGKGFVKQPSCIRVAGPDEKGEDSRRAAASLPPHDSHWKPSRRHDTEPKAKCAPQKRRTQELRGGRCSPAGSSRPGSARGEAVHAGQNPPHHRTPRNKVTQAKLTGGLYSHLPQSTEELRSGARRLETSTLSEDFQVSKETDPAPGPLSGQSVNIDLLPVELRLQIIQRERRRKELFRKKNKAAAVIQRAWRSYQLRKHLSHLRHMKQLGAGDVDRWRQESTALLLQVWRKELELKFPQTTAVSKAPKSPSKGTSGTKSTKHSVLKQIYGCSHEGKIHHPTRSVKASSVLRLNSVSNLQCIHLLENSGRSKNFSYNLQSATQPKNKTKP

Experiment [2] concerns the target T2, NPHP1-mCh-mito (UniProt O15259).
T2 sequence: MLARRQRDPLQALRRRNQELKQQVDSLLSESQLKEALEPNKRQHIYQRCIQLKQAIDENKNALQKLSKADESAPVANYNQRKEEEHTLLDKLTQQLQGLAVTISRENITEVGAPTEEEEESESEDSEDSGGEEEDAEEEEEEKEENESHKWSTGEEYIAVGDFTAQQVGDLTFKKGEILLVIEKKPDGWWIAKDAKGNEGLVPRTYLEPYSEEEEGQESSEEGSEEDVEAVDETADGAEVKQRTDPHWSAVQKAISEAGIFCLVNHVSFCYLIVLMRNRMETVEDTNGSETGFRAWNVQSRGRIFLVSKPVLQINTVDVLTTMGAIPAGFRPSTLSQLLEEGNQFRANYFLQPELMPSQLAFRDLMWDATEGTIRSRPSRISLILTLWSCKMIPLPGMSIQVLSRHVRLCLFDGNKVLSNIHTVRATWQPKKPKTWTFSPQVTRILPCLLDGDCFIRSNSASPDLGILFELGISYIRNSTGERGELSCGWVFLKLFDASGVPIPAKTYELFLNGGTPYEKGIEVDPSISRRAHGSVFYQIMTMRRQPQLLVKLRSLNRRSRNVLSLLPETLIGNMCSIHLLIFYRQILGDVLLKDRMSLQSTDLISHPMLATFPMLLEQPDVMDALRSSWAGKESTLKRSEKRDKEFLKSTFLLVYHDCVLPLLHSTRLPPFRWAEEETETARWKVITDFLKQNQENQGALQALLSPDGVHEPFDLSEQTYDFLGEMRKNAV

The target of experiment [3] is T3, NPHP5-mCh-mito (mouse) (UniProt Q8BP00).
T3 sequence: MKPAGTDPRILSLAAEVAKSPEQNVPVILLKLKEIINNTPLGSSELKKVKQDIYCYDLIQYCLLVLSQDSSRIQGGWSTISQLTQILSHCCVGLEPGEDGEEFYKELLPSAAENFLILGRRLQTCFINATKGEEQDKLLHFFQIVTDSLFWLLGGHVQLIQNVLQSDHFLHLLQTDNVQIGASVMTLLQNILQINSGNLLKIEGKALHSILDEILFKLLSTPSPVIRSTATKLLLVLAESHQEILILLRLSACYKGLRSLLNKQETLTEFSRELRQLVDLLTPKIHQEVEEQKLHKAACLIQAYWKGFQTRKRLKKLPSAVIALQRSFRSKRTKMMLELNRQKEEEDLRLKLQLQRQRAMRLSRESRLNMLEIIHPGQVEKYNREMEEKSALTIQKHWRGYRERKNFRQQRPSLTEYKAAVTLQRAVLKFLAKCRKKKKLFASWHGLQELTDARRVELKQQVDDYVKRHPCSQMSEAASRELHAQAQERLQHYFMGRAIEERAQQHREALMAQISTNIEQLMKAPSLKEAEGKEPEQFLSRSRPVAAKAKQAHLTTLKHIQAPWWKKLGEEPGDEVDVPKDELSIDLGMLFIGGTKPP

These are yes or no findings as the source states them, for the method shown. Some binding calls cover weakened binding; strength is not graded here. Where a sequence is shown, tags or fusion partners need not be part of it.

B1: GFP-Nup35 (protein, UniProt Q8NFH5 1-326)
chain: MAAFAVEPQGPALGSEPMMLGSPTSPKPGVNAQFLPGFLMGDLPAPVTPQPRSISGPSVGVMEMRSPLLAGGSPPQPVVPAHKDKSGAPPVRSIYDDISSPGLGSTPLTSRRQPNISVMQSPLVGVTSTPGTGQSMFSPASIGQPRKTTLSPAQLDPFYTQGDSLTSEDHLDDSWVTVFGFPQASASYILLQFAQYGNILKHVMSNTGNWMHIRYQSKLQARKALSKDGRIFGESIMIGVKPCIDKSVMESSDRCALSSPSLAFTPPIKTLGTPTQPGSTPRISTMRPLATAYKASTSDYQVISDRQTPKKDESLVSKAMEYMFGW
Turning to B1, the results for the binding result in experiment [1], in experiment [2] and in experiment [3] were “binds”, “no binding” and “binds”, respectively.

B2: EGFP-tagged Nup93 (protein, UniProt Q8N1F7 1-819)
chain: MDTEGFGELLQQAEQLAAETEGISELPHVERNLQEIQQAGERLRSRTLTRTSQETADVKASVLLGSRGLDISHISQRLESLSAATTFEPLEPVKDTDIQGFLKNEKDNALLSAIEESRKRTFGMAEEYHRESMLVEWEQVKQRILHTLLASGEDALDFTQESEPSYISDVGPPGRSSLDNIEMAYARQIYIYNEKIVNGHLQPNLVDLCASVAELDDKSISDMWTMVKQMTDVLLTPATDALKNRSSVEVRMEFVRQALAYLEQSYKNYTLVTVFGNLHQAQLGGVPGTYQLVRSFLNIKLPAPLPGLQDGEVEGHPVWALIYYCMRCGDLLAASQVVNRAQHQLGEFKTWFQEYMNSKDRRLSPATENKLRLHYRRALRNNTDPYKRAVYCIIGRCDVTDNQSEVADKTEDYLWLKLNQVCFDDDGTSSPQDRLTLSQFQKQLLEDYGESHFTVNQQPFLYFQVLFLTAQFEAAVAFLFRMERLRCHAVHVALVLFELKLLLKSSGQSAQLLSHEPGDPPCLRRLNFVRLLMLYTRKFESTDPREALQYFYFLRDEKDSQGENMFLRCVSELVIESREFDMILGKLENDGSRKPGVIDKFTSDTKPIINKVASVAENKGLFEEAAKLYDLAKNADKVLELMNKLLSPVVPQISAPQSNKERLKNMALSIAERYRAQGISANKFVDSTFYLLLDLITFFDEYHSGHIDRAFDIIERLKLVPLNQESVEERVAAFRNFSDEIRHNLSEVLLATMNILFTQFKRLKGTSPSSSSRPQRVIEDRDSQLRSQARTLITFAGMIPYRTSGDTNARLVQMEVLMN
Consider B2, for which the binding result in experiment [1], in experiment [2] and in experiment [3] was “no binding” each time.

B3: GFP-Nup133 (protein, UniProt Q8WUM0 1-1156)
chain: MFPAAPSPRTPGTGSRRGPLAGLGPGSTPRTASRKGLPLGSAVSSPVLFSPVGRRSSLSSRGTPTRMFPHHSITESVNYDVKTFGSSLPVKVMEALTLAEVDDQLTINIDEGGWACLVCKEKLIIWKIALSPITKLSVCKELQLPPSDFHWSADLVALSYSSPSGEAHSTQAVAVMVATREGSIRYWPSLAGEDTYTEAFVDSGGDKTYSFLTAVQGGSFILSSSGSQLIRLIPESSGKIHQHILPQGQGMLSGIGRKVSSLFGILSPSSDLTLSSVLWDRERSSFYSLTSSNISKWELDDSSEKHAYSWDINRALKENITDAIWGSESNYEAIKEGVNIRYLDLKQNCDGLVILAAAWHSADNPCLIYYSLITIEDNGCQMSDAVTVEVTQYNPPFQSEDLILCQLTVPNFSNQTAYLYNESAVYVCSTGTGKFSLPQEKIVFNAQGDSVLGAGACGGVPIIFSRNSGLVSITSRENVSILAEDLEGSLASSVAGPNSESMIFETTTKNETIAQEDKIKLLKAAFLQYCRKDLGHAQMVVDELFSSHSDLDSDSELDRAVTQISVDLMDDYPASDPRWAESVPEEAPGFSNTSLIILHQLEDKMKAHSFLMDFIHQVGLFGRLGSFPVRGTPMATRLLLCEHAEKLSAAIVLKNHHSRLSDLVNTAILIALNKREYEIPSNLTPADVFFREVSQVDTICECLLEHEEQVLRDAPMDSIEWAEVVINVNNILKDMLQAASHYRQNRNSLYRREESLEKEPEYVPWTATSGPGGIRTVIIRQHEIVLKVAYPQADSNLRNIVTEQLVALIDCFLDGYVSQLKSVDKSSNRERYDNLEMEYLQKRSDLLSPLLSLGQYLWAASLAEKYCDFDILVQMCEQTDNQSRLQRYMTQFADQNFSDFLFRWYLEKGKRGKLLSQPISQHGQLANFLQAHEHLSWLHEINSQELEKAHATLLGLANMETRYFAKKKTLLGLSKLAALASDFSEDMLQEKIEEMAEQERFLLHQETLPEQLLAEKQLNLSAMPVLTAPQLIGLYICEENRRANEYDFKKALDLLEYIDEEEDININDLKLEILCKALQRDNWSSSDGKDDPIEVSKDSIFVKILQKLLKDGIQLSEYLPEVKDLLQADQLGSLKSNPYFEFVLKANYEYYVQGQI
As for B3, the figures for the binding entry in experiment [1], in experiment [2] and in experiment [3] were “binds”, “no binding” and “binds”, respectively.

B4: EGFP-tagged Nup107 (protein, UniProt P57740 1-925)
chain: MDRSGFGEISSPVIREAEVTRTARKQSAQKRVLLQASQDENFGNTTPRNQVIPRTPSSFRQPFTPTSRSLLRQPDISCILGTGGKSPRLTQSSGFFGNLSMVTNLDDSNWAAAFSSQRSGLFTNTEPHSITEDVTISAVMLREDDPGEAASMSMFSDFLQSFLKHSSSTVFDLVEEYENICGSQVNILSKIVSRATPGLQKFSKTASMLWLLQQEMVTWRLLASLYRDRIQSALEEESVFAVTAVNASEKTVVEALFQRDSLVRQSQLVVDWLESIAKDEIGEFSDNIEFYAKSVYWENTLHTLKQRQLTSYVGSVRPLVTELDPDAPIRQKMPLDDLDREDEVRLLKYLFTLIRAGMTEEAQRLCKRCGQAWRAATLEGWKLYHDPNVNGGTELEPVEGNPYRRIWKISCWRMAEDELFNRYERAIYAALSGNLKQLLPVCDTWEDTVWAYFRVMVDSLVEQEIQTSVATLDETEELPREYLGANWTLEKVFEELQATDKKRVLEENQEHYHIVQKFLILGDIDGLMDEFSKWLSKSRNNLPGHLLRFMTHLILFFRTLGLQTKEEVSIEVLKTYIQLLIREKHTNLIAFYTCHLPQDLAVAQYALFLESVTEFEQRHHCLELAKEADLDVATITKTVVENIRKKDNGEFSHHDLAPALDTGTTEEDRLKIDVIDWLVFDPAQRAEALKQGNAIMRKFLASKKHEAAKEVFVKIPQDSIAEIYNQCEEQGMESPLPAEDDNAIREHLCIRAYLEAHETFNEWFKHMNSVPQKPALIPQPTFTEKVAHEHKEKKYEMDFGIWKGHLDALTADVKEKMYNVLLFVDGGWMVDVREDAKEDHERTHQMVLLRKLCLPMLCFLLHTILHSTGQYQECLQLADMVSSERHKLYLVFSKEELRKLLQKLRESSLMLLDQGLDPLGYEIQL
With B4, the binding entry in experiment [1], in experiment [2] and in experiment [3] was “no binding” each time.
